Test results from PMC7005872.
Numbering of substitutions follows the chain as printed. In names and notes the source's numbering stands. These are yes or no findings as the source states them, for the method shown. Binding seen in cells or lysates may run through a third protein. Some binding calls cover weakened binding; strength is not graded here. For part of these data: Sequences can lack the tags named with a protein. One block for each binder: values may come before it.

Experiments:
GFP-TBK1 WT, Q9UHD2 = biological target: T1, GFP-TBK1 WT, Q9UHD2; experiment: co-IP; GFP-TBK1 and FLAG-TBK1 co-expressed in GAS-infected HeLa WT cells; immunoblot; settings: remark: other sources report otherwise
T1 chain: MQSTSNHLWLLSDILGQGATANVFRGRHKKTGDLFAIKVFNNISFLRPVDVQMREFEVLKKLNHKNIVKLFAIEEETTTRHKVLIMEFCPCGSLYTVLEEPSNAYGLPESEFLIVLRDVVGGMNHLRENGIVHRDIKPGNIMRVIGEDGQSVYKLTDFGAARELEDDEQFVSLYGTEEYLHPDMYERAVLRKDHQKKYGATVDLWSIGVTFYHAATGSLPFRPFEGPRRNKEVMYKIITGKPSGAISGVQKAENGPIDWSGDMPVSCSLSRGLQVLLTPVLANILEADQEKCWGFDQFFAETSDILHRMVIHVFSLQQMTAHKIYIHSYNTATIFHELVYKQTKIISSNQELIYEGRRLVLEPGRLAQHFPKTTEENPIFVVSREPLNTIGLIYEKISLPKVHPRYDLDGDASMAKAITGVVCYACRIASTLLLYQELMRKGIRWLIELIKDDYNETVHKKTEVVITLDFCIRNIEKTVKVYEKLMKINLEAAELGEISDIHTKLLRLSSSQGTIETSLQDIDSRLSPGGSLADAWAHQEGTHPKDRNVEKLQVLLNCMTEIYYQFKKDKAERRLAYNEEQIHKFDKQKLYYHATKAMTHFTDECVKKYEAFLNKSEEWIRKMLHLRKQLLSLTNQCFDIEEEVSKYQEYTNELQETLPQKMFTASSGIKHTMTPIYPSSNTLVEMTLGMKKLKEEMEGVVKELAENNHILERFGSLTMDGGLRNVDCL

GFP-TBK1-S172E = GFP-TBK1-S172E (UniProt Q9UHD2); experiment: co-IP; lysate of HeLa WT or TBC1D9-KO cells transfected with GFP-TBK1 S172E and FLAG-TBK1 S172E, immunoprecipitated with GFP-Trap
[1] = biological target: T2, endogenous TBK1 (human (endogenous in HeLa)) (UniProt Q9UHD2); experiment: co-IP; endogenous proteins; lysis in 10 mM Tris-HCl pH 7.4, 150 mM NaCl, 10 mM MgCl2, 1 mM EDTA, 1% Triton X-100; antibody and Protein G Sepharose at 4 °C; rabbit immunoglobulin fraction as negative control
T2 sequence: T1 chain

binding (GFP-TBK1 WT, Q9UHD2): binds
B1: GFP-TBK1 WT, Q9UHD2 1-729 (protein)
chain: T1 chain

binding (GFP-TBK1-S172E): binds
B2: GFP-TBK1-S172E (protein, UniProt Q9UHD2 1-729)
chain: T1 chain with S172E

binding [1]: binds
B3: endogenous TBC1D9 (protein, UniProt Q6ZT07 1-1266)
chain: MWVNPEEVLLANALWITERANPYFILQRRKGHAGDGGGGGGLAGLLVGTLDVVLDSSARVAPYRILYQTPDSLVYWTIACGGSRKEITEHWEWLEQNLLQTLSIFENENDITTFVRGKIQGIIAEYNKINDVKEDDDTEKFKEAIVKFHRLFGMPEEEKLVNYYSCSYWKGKVPRQGWMYLSINHLCFYSFLMGREAKLVIRWVDITQLEKNATLLLPDVIKVSTRSSEHFFSVFLNINETFKLMEQLANIAMRQLLDNEGFEQDRSLPKLKRKSPKKVSALKRDLDARAKSERYRALFRLPKDEKLDGHTDCTLWTPFNKMHILGQMFVSTNYICFTSKEENLCSLIIPLREVTIVEKADSSSVLPSPLSISTRNRMTFLFANLKDRDFLVQRISDFLQQTTSKIYSDKEFAGSYNSSDDEVYSRPSSLVSSSPQRSTSSDADGERQFNLNGNSVPTATQTLMTMYRRRSPEEFNPKLAKEFLKEQAWKIHFAEYGQGICMYRTEKTRELVLKGIPESMRGELWLLLSGAINEKATHPGYYEDLVEKSMGKYNLATEEIERDLHRSLPEHPAFQNEMGIAALRRVLTAYAFRNPNIGYCQAMNIVTSVLLLYAKEEEAFWLLVALCERMLPDYYNTRVVGALVDQGVFEELARDYVPQLYDCMQDLGVISTISLSWFLTLFLSVMPFESAVVVVDCFFYEGIKVIFQLALAVLDANVDKLLNCKDDGEAMTVLGRYLDSVTNKDSTLPPIPHLHSLLSDDVEPYPEVDIFRLIRTSYEKFGTIRADLIEQMRFKQRLKVIQTLEDTTKRNVVRTIVTETSFTIDELEELYALFKAEHLTSCYWGGSSNALDRHDPSLPYLEQYRIDFEQFKGMFALLFPWACGTHSDVLASRLFQLLDENGDSLINFREFVSGLSAACHGDLTEKLKLLYKMHVLPEPSSDQDEPDSAFEATQYFFEDITPECTHVVGLDSRSKQGADDGFVTVSLKPDKGKRANSQENRNYLRLWTPENKSKSKNAKDLPKLNQGQFIELCKTMYNMFSEDPNEQELYHATAAVTSLLLEIGEVGKLFVAQPAKEGGSGGSGPSCHQGIPGVLFPKKGPGQPYVVESVEPLPASLAPDSEEHSLGGQMEDIKLEDSSPRDNGACSSMLISDDDTKDDSSMSSYSVLSAGSHEEDKLHCEDIGEDTVLVRSGQGTAALPRSTSLDRDWAITFEQFLASLLTEPALVKYFDKPVCMMARITSAKNIRMMGKPLTSASDYEISAMSG
